Measurements: the supplement of paper PMC3334620
The full ranking holds about 33,000 sequences; the median of “E-score (-0.5 to 0.5)” is about -0.017, and the highest 2% start at about 0.3. The list shows a part of the results.

What follows are sequences tested against T1, Sut1 (UniProt P53032) (assay: PBM E-score (8-mer binding enrichment) (E-score (-0.5 to 0.5)); higher = stronger / more preferred TF binding; most listed sequences are background and not binding sites). Conditions: protein concentration: 200 nM; construct: GST-full length.
T1 sequence: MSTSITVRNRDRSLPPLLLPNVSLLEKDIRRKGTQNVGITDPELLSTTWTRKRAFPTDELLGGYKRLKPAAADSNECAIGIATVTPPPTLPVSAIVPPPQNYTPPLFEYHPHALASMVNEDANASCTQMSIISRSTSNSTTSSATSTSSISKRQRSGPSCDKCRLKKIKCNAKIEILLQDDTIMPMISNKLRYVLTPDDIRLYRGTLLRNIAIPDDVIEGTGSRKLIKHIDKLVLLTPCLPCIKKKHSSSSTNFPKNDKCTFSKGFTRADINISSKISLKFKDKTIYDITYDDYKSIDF
Method in brief: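 For each ungapped eight-base word taken together with its reverse complement, the Universal PBM Analysis Suite assigned an E-score. Binding data came from GST-tagged yeast transcription factors, applied at about 100-200 nM, on universal all-10-mer Agilent arrays made double-stranded by primer extension. Fluorescent anti-GST marked bound protein, and scans were normalised with masliner.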

Row | Sequence | PBM E-score
1 | ACTAAGCC | 0.00053
2 | TAGATTGA | 0.0402
3 | CCTTATAG | 0.0911
4 | ACCCTTCA | -0.0519
5 | TCTCCCCA | -0.212
6 | CAATAACC | 0.0745
7 | TAAGGGTA | -0.198
8 | GGCCGGTA | 0.0132
9 | ATGCCGGA | 0.325
10 | GAAACAGA | 0.0594
11 | TACCCACA | -0.0829
12 | CTGCCGGC | -0.0532
13 | GTGGAACA | -0.0308
14 | GGGGTCAC | -0.251
15 | CAAGCGGG | -0.197
16 | AACTACTT | 0.0474
17 | CAACGAAC | -0.0827
18 | AGAGGAGA | -0.248
19 | AGAAATTA | 0.335
20 | CACAGGTA | -0.1
21 | CTACCTAC | 0.107
22 | ACGTGGGC | -0.221

Row | Sequence | PBM E-score
23 | GCAGGCTA | -0.187
24 | CTGCCGGA | 0.0897
25 | CACCTTGG | -0.0353
26 | GTGTGGCA | -0.133
27 | ATCTTCAG | 0.162
28 | ATTTCCGG | 0.325
29 | AAATTGGT | 0.206
30 | ATCTGTCA | 0.158
31 | AACCGAAT | 0.099
32 | GCAAGTAA | 0.121
33 | CTCGATTC | 0.0392
34 | ATTACGCC | -0.0733
35 | ATGGCTTC | 0.101
36 | ACTGAGAC | 0.00875
37 | CTGCGAGC | -0.126
38 | CGGGTGGA | -0.227
39 | TCGGTTAA | 0.183
40 | AAATATCC | 0.161
41 | ACGCCGAC | -0.0103
42 | ATGCCGAG | -0.0383
43 | CCGGCTCA | 0.165
44 | ACAGACTA | -0.118

Row | Sequence | PBM E-score
45 | ACCAGAAG | -0.129
46 | ATACCTTC | 0.075
47 | TGGTTACA | -0.0843
48 | ACCTTCAG | -0.0815
49 | GTAAATTA | 0.213
50 | CAGGCCGC | -0.289
51 | ATGCAATC | 0.102
52 | AAGGCGCG | -0.182
53 | ATTCCAAT | 0.161
54 | AAACCCGC | -0.0276
55 | CACACGAA | 0.0539
56 | CTTCTTTA | 0.0979
57 | CGTATGAA | 0.153
58 | ATGGACTA | -0.0502
59 | ACCGCCAG | -0.0576
60 | AAGTGACG | -0.0111
61 | GAAAGTAA | 0.197
62 | AAGAGCAA | -0.00505
63 | ACATCGGT | -0.034
64 | GTGCGCAC | -0.0106
65 | CGCTAAAA | 0.0272
66 | CCCATAGA | -0.268

Row | Sequence | PBM E-score
67 | AATGACAT | 0.0558
68 | CATTGAAC | 0.0642
69 | ACCTCAAG | -0.104
70 | TAAAGTAA | 0.142
71 | GTTCTATA | 0.116
72 | AGATCAGG | -0.123
73 | CTTGACCC | -0.0446
74 | AGCGTCAC | -0.241
75 | CTTCATGC | -0.0609
76 | GAGTCGAA | 0.0563
77 | ATGATTCC | 0.215
78 | TATGCACA | -0.0194
79 | CGCATATA | -0.0843
80 | CCCCCCTA | -0.298
81 | GGCGCGTA | -0.216
82 | GATATTCC | 0.0731
83 | TCCTAGGA | -0.283
84 | ACTTTACC | 0.0831
85 | TGGGATAA | 0.0418
86 | ATCGGTCC | -0.134
